Assay results taken from the supplement of paper PMC10369915.
The list shows a part of the results. No stated cut-off is given here; in the data, active = 3.2 or more and inactive = the rest. Most of these values are background signal.

Columns and labels:
Experiment in all cases: enrichment score (SH2-bound / input frequency) (ratio); bacterial display of known human phosphotyrosine sites (pTyr-Var adds point mutants) read by sequencing; higher = stronger binding; tyrosines were phosphorylated by kinases first
Settings in all cases: peptide library: pTyr-Var
[1] = target: SHP2 C-SH2 domain E139D
[2] = target: SHP2 C-SH2 domain wild-type
[3] = target: SHP2 N-SH2 domain L43F
[4] = target: SHP2 N-SH2 domain T42A
[5] = target: SHP2 N-SH2 domain T52S
[6] = target: SHP2 N-SH2 domain wild-type

Measured: enrichment score
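Further: displayed peptides selected on beads carrying the immobilized SH2 domain, with library peptides lacking any tyrosine serving as negative controls.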

B1: GRIN2D_Y732_YF (peptide)
chain: PDMHSYMVRFN
inactive: [1] 0.749 | [2] 0.617 | [3] 0.788 | [4] 0.694 | [5] 0.665 | [6] 0.851

B2: GRIN2D_Y736 (peptide)
chain: SYMVRYNQPRV
inactive: [1] 1.39 | [2] 1.01 | [3] 1.21 | [4] 1.52 | [5] 1.45 | [6] 1.32

B3: GRIN3A_Y831_D835N (peptide)
chain: PDGVEYLKNNP
inactive: [1] 0.736 | [2] 0.749 | [3] 0.957 | [4] 0.704 | [5] 0.864 | [6] 0.724

B4: GRK3_Y109_R104K (peptide)
chain: KSRQIYDAYIM
inactive: [1] 0.969 | [2] 0.807 | [3] 0.716 | [4] 0.728 | [5] 0.975 | [6] 0.968

B5: GRM3_Y478 (peptide)
chain: NVGGKYSYLKV
inactive: [1] 1.09 | [2] 1.25 | [3] 0.806 | [4] 1.09 | [5] 1.1 | [6] 1.31

B6: GRM3_Y478_YF (peptide)
chain: NVGGKYSFLKV
inactive: [1] 0.924 | [2] 1.01 | [3] 0.85 | [4] 0.694 | [5] 0.786 | [6] 0.949

B7: GRM3_Y480 (peptide)
chain: GGKYSYLKVGH
inactive: [1] 0.997 | [2] 1.05 | [3] 1.13 | [4] 1.02 | [5] 0.935 | [6] 1.06

B8: GRM3_Y480_YF (peptide)
chain: GGKFSYLKVGH
inactive: [1] 0.965 | [2] 0.622 | [3] 0.903 | [4] 0.696 | [5] 0.952 | [6] 1.04

B9: GRM3_Y754_T758M (peptide)
chain: ILCTVYAFKMR
inactive: [1] 1.47 | [2] 1.53 | [3] 1.08 | [4] 1.21 | [5] 1.35 | [6] 1.09

B10: GSR_Y158 (peptide)
chain: RLNAIYQNNLT
inactive: [1] 1.04 | [2] 0.947 | [3] 1.1 | [4] 0.82 | [5] 1.07 | [6] 0.865

B11: GSR_Y371 (peptide)
chain: NVKGIYAVGDV
inactive: [1] 0.845 | [2] 0.81 | [3] 0.798 | [4] 0.65 | [5] 0.809 | [6] 0.965

B12: GSR_Y371_G374A (peptide)
chain: NVKGIYAVADV
inactive: [1] 0.888 | [2] 1.07 | [3] 0.797 | [4] 0.698 | [5] 0.888 | [6] 0.757

B13: GSS_Y270_R267W_YF (peptide)
chain: FFWDGYMPRQF
inactive: [1] 1.35 | [2] 1.27 | [3] 1.14 | [4] 1.1 | [5] 1.15 | [6] 1.15

B14: GSS_Y270_Y270H (peptide)
chain: YFRDGHMPRQY
inactive: [1] 0.578 | [2] 0.485 | [3] 0.659 | [4] 0.661 | [5] 0.485 | [6] 0.662

B15: GSS_Y270_YF (peptide)
chain: FFRDGYMPRQF
inactive: [1] 0.715 | [2] 0.601 | [3] 0.735 | [4] 0.6 | [5] 0.611 | [6] 0.651

B16: GSTA1_Y147_G144R (peptide)
chain: SHRQDYLVGNK
inactive: [1] 0.749 | [2] 0.738 | [3] 0.761 | [4] 0.679 | [5] 0.659 | [6] 0.522

B17: GSTA3_Y74 (peptide)
chain: RAILNYIASKY
inactive: [1] 1.26 | [2] 1.32 | [3] 1.03 | [4] 1.11 | [5] 1.11 | [6] 1.23

B18: GSTA3_Y74_I71L_YF (peptide)
chain: RALLNYIASKF
inactive: [1] 0.704 | [2] 0.81 | [3] 0.585 | [4] 0.73 | [5] 0.841 | [6] 0.886

B19: GSTP1_Y109_A114V (peptide)
chain: YISLIYTNYEV
inactive: [1] 2.69 | [2] 2.73 | [6] 2.52
active: [3] 4.13 | [4] 5.7 | [5] 4.96

B20: GSTP1_Y112 (peptide)
chain: LIYTNYEAGKD
inactive: [1] 1.12 | [2] 0.981 | [3] 0.898 | [4] 2.6 | [5] 0.989 | [6] 1.07

B21: GSTP1_Y112_A114V (peptide)
chain: LIYTNYEVGKD
active: [4] 3.5
inactive: [1] 1.27 | [2] 1.21 | [3] 1.4 | [5] 1.34 | [6] 0.961

B22: GSTP1_Y112_YF (peptide)
chain: LIFTNYEAGKD
inactive: [1] 0.861 | [2] 1.26 | [3] 0.66 | [4] 1.02 | [5] 0.839 | [6] 1.12

B23: GTF2E2_Y137 (peptide)
chain: VIDGKYAFKPK
inactive: [1] 0.607 | [2] 0.74 | [3] 0.58 | [4] 0.593 | [5] 0.67 | [6] 0.891

B24: GUCY2C_Y681_T682I (peptide)
chain: RKETFYILSCR
inactive: [1] 0.464 | [2] 0.419 | [3] 0.52 | [4] 0.358 | [5] 0.541 | [6] 0.445

B25: GUCY2C_Y839 (peptide)
chain: TTICKYSTPME
inactive: [1] 0.921 | [2] 1.13 | [3] 0.798 | [4] 0.65 | [5] 0.875 | [6] 0.793

B26: GUCY2C_Y839_S840I (peptide)
chain: TTICKYITPME
inactive: [1] 0.99 | [2] 1.12 | [3] 1.17 | [4] 1.1 | [5] 0.785 | [6] 0.822

B27: GUCY2D_Y656 (peptide)
chain: IKGIRYLHHRG
inactive: [1] 1.47 | [2] 0.976 | [3] 1.1 | [4] 1.11 | [5] 1.19 | [6] 1.46

B28: GYPC_Y126 (peptide)
chain: SSRKEYFIGGG
inactive: [1] 1.24 | [2] 1.04 | [3] 0.923 | [4] 0.874 | [5] 0.653 | [6] 0.952

B29: GYPC_Y126_K124E (peptide)
chain: SSREEYFIGGG
inactive: [1] 0.955 | [2] 0.974 | [3] 0.878 | [4] 0.757 | [5] 0.903 | [6] 1.01

B30: H3-5_Y41_H39R (peptide)
chain: VKPRRYRPGTV
inactive: [1] 0.471 | [2] 0.274 | [3] 0.323 | [4] 0.228 | [5] 0.222 | [6] 0.265

B31: H6PD_Y449 (peptide)
chain: SDYYAYSPVRE
inactive: [1] 0.683 | [2] 1.37 | [3] 0.816 | [4] 0.762 | [5] 0.787 | [6] 0.746

B32: H6PD_Y449_R453Q_YF (peptide)
chain: SDFFAYSPVQE
inactive: [1] 1.07 | [2] 1.3 | [3] 0.821 | [4] 0.897 | [5] 1.04 | [6] 0.791

B33: H6PD_Y449_YF (peptide)
chain: SDFFAYSPVRE
inactive: [1] 0.981 | [2] 0.93 | [3] 0.827 | [4] 0.609 | [5] 0.942 | [6] 0.757

B34: HADHA_Y239_A244V (peptide)
chain: ERTIEYLEEVV
inactive: [1] 0.796 | [2] 0.704 | [3] 0.968 | [4] 1.52 | [5] 0.716 | [6] 0.79

B35: HADHA_Y283_V282D (peptide)
chain: VRQQDYKKVEE
inactive: [1] 0.659 | [2] 0.395 | [3] 0.493 | [4] 0.529 | [5] 0.437 | [6] 0.56

B36: HADHA_Y343_L342P (peptide)
chain: ALMGPYHGQVL
inactive: [1] 0.845 | [2] 0.887 | [3] 0.918 | [4] 0.832 | [5] 0.797 | [6] 0.871

B37: HADHB_Y244_D242G (peptide)
chain: LEQGEYALRSH
inactive: [1] 0.658 | [2] 0.636 | [3] 0.63 | [4] 0.57 | [5] 0.587 | [6] 0.816
